This is an account of results in paper PMC7819943, “Rice protein-binding microarrays: a tool to detect cis-acting elements near promoter regions in rice”.

This is one part of the list.

In this test the target is T1, OsWOX13 (Oryza sativa, UniProt Q5QMM3 1-267).
T1 sequence: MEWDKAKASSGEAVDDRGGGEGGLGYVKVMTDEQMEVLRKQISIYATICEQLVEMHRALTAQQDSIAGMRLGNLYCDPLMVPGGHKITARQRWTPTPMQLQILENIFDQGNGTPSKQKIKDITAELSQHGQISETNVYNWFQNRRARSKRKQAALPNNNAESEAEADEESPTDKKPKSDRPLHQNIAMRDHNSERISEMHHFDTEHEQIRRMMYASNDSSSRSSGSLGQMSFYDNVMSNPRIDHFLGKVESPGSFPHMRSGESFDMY
Kind of test: protein-binding microarray (RPBM); PBS, 2% BSA, 51.3 ng/ul salmon testes DNA, 50 uM zinc acetate, 200 nM TF, 25 C, 1 h; high values mean tight binding. The following applies: protein: recombinant; tags: N-terminal polyhistidine and DsRed monomer fusion (pET32a); label: CyDye5-dUTP incorporated in the synthesized complementary strand; 3' TTTTT single-stranded linker to array surface; dsDNA, one strand shown. In short, it runs like this:
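Polyhistidine-tagged DsRed fusions of transcription factors, joined at the N-terminus, were expressed in E. coli BL21-CodonPlus and isolated on Ni–NTA. They were incubated at 200 nM for 1 h at 25 °C on a custom Agilent array, double-stranded and BSA-blocked, in PBS with 2% BSA, salmon testes DNA and 50 µM zinc acetate. The binding signal is per-feature fluorescence intensity (arbitrary units) read on an Axon 4000B scanner after washing.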
In the case of “ATTAATCCCAAATTGATTAGTAGTCGCTAACTCGTGGGGACGGAGTCACCTAGTGCAG”, the binding signal is 42100 fluorescence intensity (a.u.).
For “CTTGATTACCCCGTAGTCAGGTTTGTATGACTAAGCAACCCGGAGTCACCTAGTGCAG” the value was 28100 fluorescence intensity (a.u.).
For the sequence “AACAAAGATTTGTTATCAAATAGTTGCAAATGATTAGTTACGGAGTCACCTAGTGCAG”, the binding signal is 3490 fluorescence intensity (a.u.).
With “CCCGTGATCGATTGGATCATCGGATTGCATGTTAGTACTGCGGAGTCACCTAGTGCAG” the figure was 12000 fluorescence intensity (a.u.); with “AATATATTTAATATTAGATTTGATGAAATTAATTAGGTGTCGGAGTCACCTAGTGCAG”, 14700 fluorescence intensity (a.u.).
Take “TTATGTCCCAGCCTTAGTGATTGAAGTTTCAAACAGTTCTCGGAGTCACCTAGTGCAG”: the binding signal was 8380 fluorescence intensity (a.u.).
With “TAGAAATAATTGAGCACGTTTGTCTACACAAACGCAACGCCGGAGTCACCTAGTGCAG” the figure was 19700 fluorescence intensity (a.u.); with “GGGATTGAATTGAATGACAACTGATGCCACGATTTCGACGCGGAGTCACCTAGTGCAG”, 42500 fluorescence intensity (a.u.).
“CCCGTCTCCATTTCTTTTGTCTCTCTCTCGCTCTTCAAATCGGAGTCACCTAGTGCAG”: the binding signal was 3400 fluorescence intensity (a.u.).
With “CAAATTGAATGGCTGTTGAAGTTCTGTATGTTGGAAAGCCCGGAGTCACCTAGTGCAG” the figure was 49400 fluorescence intensity (a.u.); with “GCGAGATTGGAAGGGAAGAGATCCCAATCGGCGTCGGTTACGGAGTCACCTAGTGCAG”, 10400 fluorescence intensity (a.u.).
In the case of “CCAAACAGGTGGACTAATTTGGGGTTAAAGTGAATTAGCCCGGAGTCACCTAGTGCAG”, the binding signal was 24700 fluorescence intensity (a.u.).
With “GTCACAACAAATTGGCATTGAGATTTGTCATTTGAGAGAGCGGAGTCACCTAGTGCAG” the figure was 22000 fluorescence intensity (a.u.); with “AAATGATGTGGAGATAATGATTTGACATTGCTTACATATTCGGAGTCACCTAGTGCAG”, 6350 fluorescence intensity (a.u.).
For “TTTTAAAATTTTAAACCTAGATTTAAACTTGAAATTTGAACGGAGTCACCTAGTGCAG” the value was 3590 fluorescence intensity (a.u.); for “GCCAAATTGAAAGGAGAAATGATGATAAAGGATGAGGAGTCGGAGTCACCTAGTGCAG”, 26800 fluorescence intensity (a.u.); for “ATGGGCTGATTGGGCCAGATTACACGTGCGACGTATCTGTCGGAGTCACCTAGTGCAG”, 35800 fluorescence intensity (a.u.).
With “CGATGATAGATCTGGTCTGGCGAATAGGCATGTGCTTGGTCGGAGTCACCTAGTGCAG” the figure was 14700 fluorescence intensity (a.u.).
With “TTAAAATACAAATCTAATTATACTACATGCATTAACATAACGGAGTCACCTAGTGCAG”, the binding signal is 6200 fluorescence intensity (a.u.).
For “TTGACGGGATGTTGATGGCGACGGTGCTCTTCTCTGTGTGCGGAGTCACCTAGTGCAG” the value was 5280 fluorescence intensity (a.u.); for “CAGAATTGAAGATGAGGGTCAATGCGCCAATAGAGCTGGTCGGAGTCACCTAGTGCAG”, 5130 fluorescence intensity (a.u.); for “CCAAGCATTAATGACGCTTTAAATTACTACCCCTTCCGTGCGGAGTCACCTAGTGCAG”, 3600 fluorescence intensity (a.u.).
In the case of “AAGTTTACATGCCTAATTTAAATTTGAATTTGAATTCAAACGGAGTCACCTAGTGCAG”, the binding signal is 8850 fluorescence intensity (a.u.).
